Test results reported in the RNAGym collection of RNA variant scans (doi:10.1073/pnas.2313332121).
Variants at the floor of the assay are shown more often than the library holds them.

B1: TPR 5TU (parent)
chain: GGAUCUUCUCGAUCUAACAAAAAAGACAAAUCUGCCACAAAGCUUGAGAGCAUCUUCGGAUGCAGAGGCGGCAGCCUUCGGUGGCGCGAUAGCGCCAACGUUCUCAACUAUGACACGCAAAACGCGUGCUCCGUUGAAUGGAGUUUAUCAUG

Variants of: B1
Experiment: polymerase ribozyme fitness, log enrichment relative to wild type (log ratio); higher = more active; in vitro selection for triplet polymerase activity
How it was run: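 A single round of triplicate in vitro selection, including frozen incubation at −7 °C, was applied to PCR-built, transcribed mutant libraries of each subunit of a heterodimeric triplet polymerase ribozyme. Illumina sequencing of input and output libraries retained genotypes with ≥10 input reads and ≥1 read per output. Fitness is the base-2 logarithm of genotype enrichment divided by wild-type enrichment, from inverse-variance-weighted replicate averages.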

Point of comparison: C99U A115C, “polymerase ribozyme fitness (log ratio)” value -1.19. Against it:
- G92U U101G C103G G124A C129A — lower, ≤ -4.2
- A91C G100C C108U G143C — lower, ≤ -4.2
- C96U U130A U148C — lower, ≤ -4.2
- C93G C96A C105U C116U — lower, -4.17
- C96G A120C — higher, 0.168
- C96U A122C — higher, -0.314
- C93U C123U U127C U135C — lower, ≤ -4.2
- A98U A150C — lower, -2.82
- A91G C99A U135G A138U — lower, ≤ -4.2
- C93G C105U A107G C125G — lower, ≤ -4.2
- G92A C103A G126A — lower, -3.74
- G92U A97G C108G U135C A138G — lower, ≤ -4.2
- C96U A147G — within 0.2 log units, -1.18
- C96U A147U — higher, 1.21
- G94U C108G — lower, ≤ -4.2
- C96G A137U — lower, -4
- C93G C149G — lower, ≤ -4.2
- C93U G152U — lower, -3.49
- C93U G152A — lower, -3.11
- A98G U111G G133C G136C — lower, ≤ -4.2
- G94A U101C — higher, -0.823
- A91U U104G — lower, ≤ -4.2
- C95U A122U U146G U151A — lower, ≤ -4.2
- A91C C99A U127G G133C — lower, ≤ -4.2
- A91U C103G A110U — lower, ≤ -4.2
- C96U A110U G124U C125G U144A — lower, ≤ -4.2
- C99U G141A — higher, -0.231
- A91U U135C — lower, ≤ -4.2
- G94A A115U — lower, -1.76
- A91U U111C — lower, ≤ -4.2
- C95U U104G G124U U151A — lower, ≤ -4.2
- C93A U102A A137C — lower, ≤ -4.2
- C93U U139A U148C — lower, ≤ -4.2
- C96G C116G — higher, 0.127
- A91C C105G — lower, ≤ -4.2
- A91C C105A — lower, ≤ -4.2
- C96G G141A — higher, -0.288
- C95U A119G — higher, 0.353
- G92A C96A U102C A150G — lower, ≤ -4.2
- C93G A98U C114A — lower, -3.85
- C99A U135A — lower, -2.77
- C95U C132A — lower, -2.32
- A91U C96A U144C U151A — lower, ≤ -4.2
- G92C A98U G143A — lower, -1.77
- C93U A115U U139C G141U G143C — lower, ≤ -4.2
- A98U A107U C125A A147G — lower, ≤ -4.2
- C99G U146G — within 0.2 log units, -1.32
- A91C C99A — lower, ≤ -4.2
- C93U U146G — lower, -1.47
- G94A C95G G133A U134G A137U — lower, -4.11
- C93U C125U — lower, -1.43
- C95U C105A C116A — lower, ≤ -4.2
- G92A C114U C129G U151G — lower, ≤ -4.2
- C95A C96U A97G — lower, ≤ -4.2
- C93G A121U A142U — lower, ≤ -4.2
- A91U C96G A122U G124U — lower, ≤ -4.2
- C93U C95U U135G U146A — lower, ≤ -4.2
- A91U C105U — lower, ≤ -4.2
- C93U U127A C131A — lower, ≤ -4.2
- U101C C131A U146C C149G — lower, ≤ -4.2
- A97G U102G — lower, ≤ -4.2
- C93U G124U U139A — lower, ≤ -4.2
- A91C C114U U139C — lower, ≤ -4.2
- G92A C105G — lower, ≤ -4.2
- G92A A97C C125U U145G A147C — lower, ≤ -4.2
- C93A U101C A106U A150G — lower, ≤ -4.2
- G92A C96G C108U A120C C125A U151G — lower, ≤ -4.2
- C96G A106G C108G — lower, ≤ -4.2
- A91G C114U U145C — lower, ≤ -4.2
- A97U C132A — lower, -2.65
- G94C G100U — lower, -3.69
- C93A A97G C99U U109G — lower, ≤ -4.2
- C93U C95G C108G — lower, ≤ -4.2
- C96G C103G G124U G141U — lower, ≤ -4.2
- A91G C95U C125U — lower, -4.09
- A91C G94U A106U A147C — lower, ≤ -4.2
- C96A U134A — lower, -2.73
- G92A G94A A98U C108U C116G U148C — lower, ≤ -4.2
- G92A C116G — lower, -2.6
- C96A A122C U139G A150C — lower, -3.67
- C93G A142G — lower, -3.81
- C95U C99G C123U G126A U135G G143C C149A — lower, ≤ -4.2
- G92A C125A U134G — lower, -3.58
- A91U U104A G141A U148A — lower, ≤ -4.2
- A91C A120G — lower, ≤ -4.2
- A91C G100C A120U A138G — lower, ≤ -4.2
- U101G — higher, 0.557
- U101A — higher, 0.177
- A98U C118U U144G — higher, 0.244
- C93A G133U — lower, ≤ -4.2
- C96U G128U U146C — lower, -3.35
- C93G C118G C132A — lower, ≤ -4.2
- C96G U151A — lower, ≤ -4.2
- C99A A120C U148G — lower, ≤ -4.2
- A98U C116G C123U A137C — lower, ≤ -4.2
- C93A G100A C132G U139C — lower, ≤ -4.2
- C93G G141U — lower, -2.01
- C96U C125A — higher, -0.0844
- C96U C125U — higher, -0.382
- A91C C93U — lower, ≤ -4.2
- C93G C132G — lower, ≤ -4.2
- C93A A98U C103G C105U G126C G136C — lower, ≤ -4.2
- C99U U145G — lower, -2.09
- G94C U127G U148A A150G — lower, ≤ -4.2
- A91U A120U — lower, ≤ -4.2
- A91C G92C C99U C116G C123G — lower, ≤ -4.2
- C93A U148C — lower, -3.62
- C93A U148A — lower, ≤ -4.2
- U101G A120G — higher, -0.0391
- C93G C96U A122C G124A U148G — lower, ≤ -4.2
- G92A G128A A150G — lower, ≤ -4.2
- G94A U151G — lower, ≤ -4.2
- U101A A138C U151C — lower, ≤ -4.2
- A91C C103A — lower, ≤ -4.2
- G92A A138C U148C — lower, ≤ -4.2
- A91U C125U G126U U134A — lower, ≤ -4.2
- G92C C103G — lower, ≤ -4.2
- G92U C116A A121G G126A C149G — lower, ≤ -4.2
- C93A G140A A142U — lower, ≤ -4.2
- C93U A115C G117C U135G G136C — lower, ≤ -4.2
- C93A U101G U104C C125G — lower, ≤ -4.2
- C93A A115C — lower, -3.22
- C96G C114A — lower, -4.19
- C93A C95U A107G U127C G141C — lower, ≤ -4.2
- G94A G136C — lower, -3.98
- C99A G143A — lower, -2.02
- G94C A98U C125G A142C U148A — lower, ≤ -4.2
- G94U — higher, 1.12
- G94A — higher, -0.622
- G94C — higher, -0.474
- A91U C131A — lower, ≤ -4.2
- C99A G128A — lower, ≤ -4.2
- A91U A106C C125A — lower, ≤ -4.2
- C95U C96U C118U C125A C129G — lower, ≤ -4.2
- A91C A142C U146G — lower, ≤ -4.2
- C99A U127G G143A U148G — lower, ≤ -4.2
- C96G U148A — lower, -3.53
- U101C A106C G126A C149G — lower, ≤ -4.2
- A97U U104G — higher, -0.956
- C95U U104G C108G — lower, ≤ -4.2
- C96U A98U C99G C116G A150U — lower, ≤ -4.2
- C99A G126A G140C — lower, ≤ -4.2
- A91C A115G U146A — lower, ≤ -4.2
- C95U C116G G133U — lower, ≤ -4.2
- C96U A97U — higher, -0.832
- G94A U101G U109G A110U — lower, ≤ -4.2
- G92C A122C A150G — lower, -2.28
- G92A G124A — lower, -2.65
- G92A G152U — lower, -3.58
- G94U C116G — higher, -0.502
- C93U C99G G136A U145G — lower, -1.59
- A98U G136U — lower, -2.64
- A91U A138G — lower, ≤ -4.2
- G94A A97G — lower, -2.19
- A91C U134G — lower, ≤ -4.2
- C99A A113G G141C — lower, ≤ -4.2
- C93U U104G G133A — lower, ≤ -4.2
- C93U C99A G128C — lower, ≤ -4.2
- A91U C96U — lower, ≤ -4.2
- G92U A115C — lower, -2.23
- C93U C105A C114A A137C — lower, ≤ -4.2
- C95U C99U — within 0.2 log units, -1.09
- C95U C99A — higher, -0.15
- A91U U139A — lower, ≤ -4.2
- C93A A137U — lower, ≤ -4.2
- G94U C95U A120G U148C — lower, ≤ -4.2
